Structures can show the parent of a compound that is named as a salt.
Target: PCP receptor
Assay: PCP receptor radioligand binding assay ([3H]MK-801, rat brain membranes)
Details: read-out: [3H-MK801] Ki (head printed "Kj"); derived from the IC50 values as described by Cheng et al.

`CCc1cccc(N(C)C(=N)Nc2cc(CC)ccc2Cl)c1` [Compd. No. 17 (Table I), N-(3-Ethylphenyl)-N-methyl-N'-(2-chloro-5-ethylphenyl)guanidine hydrochloride] was tested. Which Ki did it give?
Its Ki is 40.7 nM.

How did the Ki turn out when `CCc1cccc(NC(=N)Nc2cc(C(F)(F)F)ccc2F)c1` [Compound 5] was run?
The Ki was 76 nM.

With `CN(C(=N)Nc1cc(Br)ccc1Br)c1cccc([S+](C)[O-])c1` (stereo not shown) [Compound 76] as the compound, how does the Ki read?
Its Ki is 248 nM.

How did the Ki turn out when `CCc1cccc(N(C)C(=N)Nc2cc(C(F)(F)F)ccc2F)c1` [Compd. No. 14 (Table I), N-(3-Ethylphenyl)-N-methyl-N'-(2-fluoro-5-trifluoromethylphenyl)guanidine hydrochloride] was run?
Its Ki is 194 nM.

How did the Ki turn out when `CSc1cccc(N(C)C(=N)Nc2cc(Br)ccc2Br)c1` [Compd. No. 65 (Table I), N-(3-Methylthiophenyl)-N-methyl-N'-(2,5-dibromophenyl)guanidine hydrochloride] was run?
The Ki was 4.13 nM.

How did the Ki turn out when `CCc1ccc(Cl)c(NC(=N)Nc2cc(C)ccc2Cl)c1` [Compd. No. 29 (Table I)] was run?
The Ki was 42.1 nM.

`CCc1cccc(N(C)C(=N)Nc2cc(CC)ccc2F)c1` [Compd. No. 20 (Table I), N-(3-Ethylphenyl)-N-methyl-N'-(2-fluoro-5-ethylphenyl)guanidine hydrochloride] was tested. Which Ki did it give?
The Ki was 98.9 nM.

`CCc1ccc(Cl)c(N(C)C(=N)Nc2cccc3ccccc23)c1` [Compd. No. 57 (Table I), N-(1-Naphthyl)-N'-(2-chloro-5-ethylphenyl)-N'-methylguanidine hydrochloride] was tested. Which Ki did it give?
The Ki was 25.2 nM.

How did the Ki turn out when `CCc1ccc(Cl)c(NC(=N)N(C)c2cccc(C(F)(F)F)c2)c1` [Compd. No. 67 (Table I), N-(3-Trifluoromethylphenyl)-N-methyl-N'-(2-chloro-5-ethylphenyl)guanidine hydrochloride] was run?
The Ki was 59.2 nM.

With `CCc1cccc(N(C)C(=N)Nc2cc(Br)ccc2Br)c1` [Compd. No. 11 (Table I), N-(3-ethylphenyl)-N-methyl-N'-(2,5-dibromophenyl)guanidine hydrochloride] as the compound, how does the Ki read?
Its Ki is 36.6 nM.

With `CCc1cccc(N(C)C(=N)Nc2cc(CC)ccc2Br)c1` [Compd. No. 22 (Table I), N-(3-Ethylphenyl)-N-methyl-N'-(2-bromo-5-ethylphenyl)guanidine hydrochloride] as the compound, how does the Ki read?
The Ki was 12.8 nM.

Which Ki does the source give for `CCc1cccc(N(C)C(=N)N(C)c2cc(CC)ccc2Cl)c1` [Compd. No. 28 (Table I), N-(3-Ethylphenyl)-N-methyl-N'-(2-chloro-5-ethylphenyl)-N'-methylguanidine hydrochloride] here?
Its Ki is 112 nM.

Which Ki does the source give for `CCc1cccc(N(C)C(=N)Nc2cc(C(F)(F)F)ccc2Cl)c1` [Compd. No. 15 (Table I), N-(3-Ethylphenyl)-N-methyl-N'-(2-chloro-5-trifluoromethylphenyl)guanidine hydrochloride] here?
The Ki was 101 nM.

Which Ki does the source give for `N=C(Nc1cc(C(F)(F)F)ccc1Cl)Nc1cccc2ccccc12` [Compd. No. 40 (Table I), N-(1-Naphthyl)-N'-(2-chloro-5-trifluoromethylphenyl)guanidine hydrochloride] here?
The Ki was 29.6 nM.

`CSc1ccc(Cl)c(NC(=N)N(C)c2cccc(C(F)(F)F)c2)c1` [Compd. No. 66 (Table I), N-(3-Trifluoromethylphenyl)-N-methyl-N'-(2-chloro-5-methylthiophenyl)guanidine hydrochloride] was tested. Which Ki did it give?
Its Ki is 6.92 nM.

With `Cc1cccc(NC(=N)Nc2cccc3ccccc23)c1` [Compd. No. 38 (Table I)] as the compound, how does the Ki read?
Its Ki is 148 nM.

`CSc1cccc(N(C)C(=N)Nc2cc(SC)ccc2Cl)c1` [Compd. No. 60 (Table I), N-(3-Methylthiophenyl)-N-methyl-N'-(2-chloro-5-methylthiophenyl)guanidine hydrochloride] was tested. Which Ki did it give?
Its Ki is 1.84 nM.

For `CCc1cccc(N(C)C(=N)Nc2cccc(Br)c2)c1` [Compd. No. 19 (Table I)], which Ki is on record?
Its Ki is 80.7 nM.

`CN(C(=N)Nc1cc(Br)ccc1Br)c1cccc(S(C)(=O)=O)c1` [Compound 75] was tested. Which Ki did it give?
Its Ki is 408 nM.

How did the Ki turn out when `CSc1ccc(Cl)c(NC(=N)N(C)c2cccc(Br)c2)c1` [Compd. No. 72 (Table I), N-(3-Bromophenyl)-N-methyl-N'-(2-chloro-5-methylthiophenyl)guanidine hydrochloride] was run?
Its Ki is 3.58 nM.

For `CCc1cccc(NC(=N)Nc2cc(C(F)(F)F)ccc2Cl)c1` [Compd. No. 6 (Table I), N-(3-Ethylphenyl)-N'-(2-chloro-5-trifluoromethylphenyl)guanidine hydrochloride], which Ki is on record?
Its Ki is 43.9 nM.

Which Ki does the source give for `CSc1ccc(Cl)c(NC(=N)N(C)c2cccc3cccnc23)c1` [Compound 79] here?
Its Ki is 17 nM.

With `CCc1cccc(N(C)C(=N)Nc2cc(SC)ccc2Cl)c1` [Compd. No. 24 (Table I), N-13-Ethylphenyl)-N-methyl-N'-(2-chloro-5-methylthiophenyl)guanidine hydrochloride] as the compound, how does the Ki read?
Its Ki is 5.1 nM.

`CN(C(=N)Nc1cccc2ccccc12)c1cc(Cl)ccc1Cl` [Compd. No. 50 (Table I), N-(1-Naphthyl)-N'(2,5-dichlorophenyl)-N'-methylguanidine hydrochloride] was tested. Which Ki did it give?
Its Ki is 47.6 nM.

Which Ki does the source give for `N=C(Nc1cc(C(F)(F)F)ccc1Br)Nc1cccc2ccccc12` [Compd. No. 41 (Table I), N-(1-Naphthyl)-N'-(2-bromo-5-trifluoromethylphenyl)guanidine hydrochloride] here?
The Ki was 39.3 nM.

For `CCc1cccc(N(C)C(=N)N(C)c2cc(Br)ccc2Br)c1` [Compd. No. 27 (Table I), N-(3-Ethylphenyl)-N-methyl-N'-(2,5-dibromophenyl)-N'-methylguanidine hydrochloride], which Ki is on record?
Its Ki is 27.3 nM.

`CCc1ccc(Cl)c(NC(=N)Nc2cccc3ccccc23)c1` [Compd. No. 44 (Table I), N-(1-Naphthyl)-N'-(2-chloro-5-ethylphenyl)guanidine hydrochloride] was tested. Which Ki did it give?
Its Ki is 15.8 nM.

`CSc1cccc(NC(=N)Nc2cccc3ccccc23)c1` [Compd. No. 47 (Table I)] was tested. Which Ki did it give?
Its Ki is 95.3 nM.

For `Cc1ccc(C)c(N(C)C(=N)Nc2cccc3ccccc23)c1` [Compd. No. 54 (Table I), N-(1-Naphthyl)-N'-(2,5-dimethylphenyl)-N'-methylguanidine hydrochloride], which Ki is on record?
The Ki was 60.5 nM.

How did the Ki turn out when `CCc1cccc(NC(=N)Nc2cccc3ccccc23)c1` [Compd. No. 45 (Table I)] was run?
Its Ki is 30 nM.

Which Ki does the source give for `CCc1cccc(N(C)C(=N)N(C)c2cc(Cl)ccc2Cl)c1` [Compd. No. 26 (Table I), N-(3-Ethylphenyl)-N-methyl-N'-(2,5-dichlorophenyl)-N'-methylguanidine hydrochloride] here?
The Ki was 72 nM.

How did the Ki turn out when `N=C(Nc1cc(Cl)ccc1Cl)Nc1cccc2ccccc12` [Compd. No. 31 (Table I), N-(1-naphthyl)-N'-(2,5-dichlorophenyl)guanidine] was run?
The Ki was 31.5 nM.

For `CCc1cccc(N(C)C(=N)Nc2cccc3ccccc23)c1` [Compd. No. 58 (Table I)], which Ki is on record?
Its Ki is 28.8 nM.

For `CCc1cccc(NC(=N)Nc2cc(CC)ccc2F)c1` [Compd. No. 21 (Table I), N-(3-Ethylphenyl)-N'-(2-fluoro-5-ethylphenyl)guanidine hydrochloride], which Ki is on record?
Its Ki is 49.8 nM.

How did the Ki turn out when `CCc1cccc(NC(=N)Nc2cccc(Cl)c2)c1` [Compd. No. 3 (Table I)] was run?
The Ki was 112 nM.

How did the Ki turn out when `CSc1cccc(N(C)C(=N)Nc2cc(Cl)ccc2Cl)c1` [Compd. No. 62 (Table I), N-(3-Methylthiophenyl)-N-methyl-N'-(2,5-dichlorophenyl)guanidine hydrochloride] was run?
Its Ki is 45.6 nM.

For `CCc1cccc(NC(=N)Nc2cc(C)ccc2Cl)c1` [Compd. No. 7 (Table I), N-(3-Ethylphenyl)-N'-(2-chloro-5-methylphenyl)guanidine hydrochloride], which Ki is on record?
The Ki was 76.9 nM.

With `CCc1cccc(NC(=N)Nc2cc(SC)ccc2Cl)c1` [Compd. No. 25 (Table I), N-(3-Ethylphenyl)-N'-(2-chloro-5-methylthiophenyl)guanidine hydrochloride] as the compound, how does the Ki read?
The Ki was 11.8 nM.

Which Ki does the source give for `CSc1cccc(N(C)C(=N)Nc2cc(SC)ccc2Br)c1` [Compd. No. 63 (Table I), N-(3-Methylthiophenyl)-N-methyl-N'-(2-bromo-5-methylthiophenyl)guanidine] here?
The Ki was 1.65 nM.

With `N=C(Nc1cc(C(F)(F)F)ccc1F)Nc1cccc2ccccc12` [Compd. No. 39 (Table I), N-(1-Naphthyl)-N'-(2-fluoro-5-trifluoromethylphenyl)guanidine hydrochloride] as the compound, how does the Ki read?
Its Ki is 29.5 nM.

Which Ki does the source give for `CCc1cccc(N(C)C(=N)Nc2cc(SC)ccc2Br)c1` [Compd. No. 59 (Table I)] here?
The Ki was 2.48 nM.

`CCc1ccc(Br)c(NC(=N)N(C)c2cccc(OC(F)(F)F)c2)c1` [Compound 74] was tested. Which Ki did it give?
Its Ki is 12.3 nM.

For `CSc1ccc(C(F)(F)F)cc1NC(=N)Nc1cccc2ccccc12` [Compd. No. 42 (Table I), N-(1-Naphthyl)-N'-(2-thiomethyl-5-trifluoromethylphenyl)guanidine hydrochloride], which Ki is on record?
Its Ki is 131 nM.

For `CCc1cccc(N(C)C(=N)Nc2cc(Cl)ccc2Cl)c1` [Compd. No. 10 (Table I), N-(3-ethylphenyl)-N-methyl-N'-(2,5-dichlorophenyl)guanidine hydrochloride], which Ki is on record?
The Ki was 65 nM.

How did the Ki turn out when `CCc1ccc(Cl)c(NC(=N)N(C)c2cccc(SC)c2)c1` [Compd. No. 61 (Table I), N-(3-Methylthiophenyl)-N-methyl-N'-(2-chloro-5-ethylphenyl)guanidine hydrochloride] was run?
The Ki was 9.69 nM.

With `CCc1cccc(N(C)C(=N)Nc2cccc(Cl)c2)c1` [Compd. No. 12 (Table I)] as the compound, how does the Ki read?
The Ki was 497 nM.

`Cc1ccc(Cl)c(N(C)C(=N)Nc2cccc3ccccc23)c1` [Compd. No. 55 (Table I), N-(1-Naphthyl)-N'-(2-chloro-5-methylphenyl)-N'-methylguanidine hydrochloride] was tested. Which Ki did it give?
The Ki was 31.6 nM.

With `CSc1ccc(Cl)c(NC(=N)N(C)c2cccc(I)c2)c1` [Compound 77] as the compound, how does the Ki read?
The Ki was 1.62 nM.

`CCc1ccc(Cl)c(NC(=N)Nc2cccc(I)c2)c1` [Compound 78] was tested. Which Ki did it give?
Its Ki is 10.5 nM.

With `CCc1cccc(NC(=N)Nc2cccc(CC)c2)c1` [Compd. No. 9 (Table I)] as the compound, how does the Ki read?
Its Ki is 129 nM.

Which Ki does the source give for `Cc1ccc(C)c(NC(=N)Nc2cccc3ccccc23)c1` [Compd. No. 33 (Table I), N-(1-Naphthyl)-N'-(2,5-dimethylphenyl)guanidine hydrochloride] here?
The Ki was 60.9 nM.

How did the Ki turn out when `CN(C(=N)Nc1cccc2ccccc12)c1cccc(Br)c1` [Compd. No. 53 (Table I)] was run?
The Ki was 41.6 nM.

From patent US6153604A, “Therapeutic substituted guanidines” (Cambridge NeuroScience, Inc., priority 1995, dated 2000)
